Reference: paper PMC3675490 (Nucleic Acids Research, 2013)

Biological target: the molecule itself
Experiment: crystal structure

B1: Hfq65 (Escherichia coli Hfq, […], Sm fold) (domain or fragment)
chain: not shown
- stoichiometry N: 6
